Measured values published in a compilation of properties of binary mixtures (doi:10.1021/je900544m).
Some of these densities may be calculated back from excess volumes.

Experiment: xn = mol fraction of the nth substance listed
Details: 101 kPa

C[N+](C)(C)CCO.O=C([O-])C1CCCCC1 + CCO
mass density [kg/m3]
Details | x2 = 0 | x2 = 0.1001 | x2 = 0.2 | x2 = 0.3 | x2 = 0.4001 | x2 = 0.5 | x2 = 0.6 | x2 = 0.7 | x2 = 0.8 | x2 = 0.9
293.15 K | 1070.7 | – | 1054.6 | – | 1034.5 | 1020.6 | 1003.9 | 977.6 | 939.5 | 884.1
298.15 K | 1067.8 | 1060 | 1051.7 | 1042.8 | – | 1017.5 | 1000.8 | 974.4 | 936.1 | 880.4
303.15 K | – | 1057.1 | 1048.7 | 1039.8 | 1028.4 | 1014.4 | 997.7 | – | 932.7 | –
308.15 K | 1062 | – | 1045.7 | 1036.8 | 1025.3 | 1011.4 | – | 968 | 929.3 | 873
313.15 K | 1059.1 | 1051.2 | 1042.8 | 1033.8 | 1022.3 | 1008.4 | – | 964.8 | 925.9 | 869.3
318.15 K | 1056.2 | – | 1039.8 | – | 1019.3 | 1005.4 | 988.4 | 961.5 | – | 865.6
323.15 K | 1053.3 | 1045.4 | 1036.9 | 1027.8 | – | 1002.4 | 985.3 | 958.3 | 919.1 | 861.8

CCO + C[N+](C)(C)CCO.O=C([O-])C1CCCCC1
x1 = 1
Details | mass density [kg/m3]
293.15 K | 789.9
303.15 K | 781.3
308.15 K | 777
313.15 K | 772.6
318.15 K | 768.1
323.15 K | 763.6
